# The supplement of paper PMC8728848
# The list shows a part of the results.
# B1: rAAL-2 (Agrocybe aegerita) (protein)
# chain: MTSNVITQDLPIPVASRGFADIVGFGLDGVVIGRNAVNLQPFLAVKNFAQNAGGWLTTKHVRLIADTTGTGKGDIVGFGNAGVYVSVNNGKNTFADPPKMVIANFGYDAGGWRVEKHLRYLADIRKIGRADIIGFGEKGVLVSRNNGGLNFGPATLVLKDFGYDAGGWRLDRHLRFLADVTGNGHLDIVGFGDKHVFISRNNGDGTFAPAKSVIDNFCIDAGGWKIGDHPRFVADLTGDGTADIIGCGKAGCWVALNNGGGVFGQVKLVINDFGTDKGWQAAKHPRFIADLTGNGRGDVVGFGNAGVYVALNNGDGTFQSAKLVLKDFGVQQGWTVSKHRRFVVDLTGDGCADIIGFGEKETLVSYNDGKGNFGPVKALTNDFSFSGGKWAPETTVCWMANLDSSRH
# Assays:
# Assay in all cases: glycan array binding signal (z-score within array); higher = stronger binding
# Details in all cases: glycan notation: IUPAC condensed, linker removed
# [1] = biological target: Fuc(a1-3)[Gal(b1-4)]GlcNAc
# Method in brief: (§1)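 Glycan array data were curated from 3228 arrays in the Consortium for Functional Glycomics database and kept only where the protein sequence was available. Glycan names were converted to IUPAC-condensed notation, and columns mapping to the same glycan were averaged. The binding signal is a within-array Z-score, averaged across arrays of the same protein sequence at different concentrations or buffers and across linkers. Negative Z-scores can be read as non-binding.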
# [2] = biological target: Fuc(a1-3)[Gal(b1-4)]GlcNAc(b1-2)Man
# Method in brief: as §1
# [3] = biological target: Fuc(a1-3)[Gal(b1-4)]GlcNAc(b1-2)Man(a1-3)[Fuc(a1-3)[Gal(b1-4)]GlcNAc(b1-2)Man(a1-6)]Man(b1-4)GlcNAc(b1-4)GlcNAc
# Method in brief: as §1
# [4] = biological target: Fuc(a1-3)[Gal(b1-4)]GlcNAc(b1-2)Man(a1-3)[Fuc(a1-3)[Gal(b1-4)]GlcNAc(b1-2)Man(a1-6)]Man(b1-4)GlcNAc(b1-4)[Fuc(a1-6)]GlcNAc
# Method in brief: as §1
# [5] = biological target: Fuc(a1-3)[Gal(b1-4)]GlcNAc(b1-3)Gal(b1-3)[Fuc(a1-4)]GlcNAc
# Method in brief: as §1
# [6] = biological target: Fuc(a1-3)[Gal(b1-4)]GlcNAc(b1-3)Gal(b1-4)[Fuc(a1-3)]GlcNAc
# Method in brief: as §1
# [7] = biological target: Fuc(a1-3)[Gal(b1-4)]GlcNAc(b1-3)Gal(b1-4)[Fuc(a1-3)]GlcNAc(b1-3)Gal(b1-4)[Fuc(a1-3)]GlcNAc
# Method in brief: as §1
# [8] = biological target: Fuc(a1-3)[Gal(b1-4)]GlcNAc(b1-3)GalNAc
# Method in brief: as §1
# [9] = biological target: Fuc(a1-3)[Gal(b1-4)]GlcNAc(b1-4)Gal(b1-4)[Fuc(a1-3)]GlcNAc
# Method in brief: as §1
# [10] = biological target: Fuc(a1-3)[Gal(b1-4)]GlcNAc(b1-4)Gal(b1-4)[Fuc(a1-3)]GlcNAc(b1-4)Gal(b1-4)[Fuc(a1-3)]GlcNAc
# Method in brief: as §1
# [11] = biological target: Fuc(a1-3)[Gal(b1-4)]GlcNAc(b1-6)GalNAc
# Method in brief: as §1
# [12] = biological target: Fuc(a1-3)[Gal(b1-4)]GlcNAc(b1-6)[Gal(b1-3)GlcNAc(b1-3)]Gal(b1-4)Glc
# Method in brief: as §1
# [13] = biological target: Fuc(a1-3)[Gal(b1-4)]GlcNAc(b1-6)[Neu5Ac(a2-3)Gal(b1-3)]GalNAc
# Method in brief: as §1
# [14] = biological target: Fuc(a1-3)[Gal(b1-4)]GlcNAc6S
# Method in brief: as §1
# [15] = biological target: Fuc(a1-3)[Gal3S(b1-4)]Glc
# Method in brief: as §1
# [16] = biological target: Fuc(a1-3)[Gal3S(b1-4)]GlcNAc
# Method in brief: as §1
# [17] = biological target: Fuc(a1-3)[Gal3S(b1-4)]GlcNAc6S
# Method in brief: as §1
# [18] = biological target: Fuc(a1-3)[GalNAc(b1-4)]GlcNAc
# Method in brief: as §1
# [19] = biological target: Fuc(a1-3)[GalNAc(b1-4)]GlcNAc6S
# Method in brief: as §1
# [20] = biological target: Fuc(a1-4)GlcNAc
# Method in brief: as §1
# [21] = biological target: Fuc(b1-3)GlcNAc
# Method in brief: as §1
# [22] = biological target: Gal(a1-2)Gal
# Method in brief: as §1
# [23] = biological target: Gal(a1-3)Gal
# Method in brief: as §1
# [24] = biological target: Gal(a1-3)Gal(b1-3)GlcNAc
# Method in brief: as §1
# [25] = biological target: Gal(a1-3)Gal(b1-3)GlcNAc(b1-2)Man
# Method in brief: as §1
# [26] = biological target: Gal(a1-3)Gal(b1-3)GlcNAc(b1-2)Man(a1-3)[Gal(a1-3)Gal(b1-3)GlcNAc(b1-2)Man(a1-6)]Man(b1-4)GlcNAc(b1-4)GlcNAc
# Method in brief: as §1
# [27] = biological target: Gal(a1-3)Gal(b1-3)GlcNAc(b1-3)GalNAc
# Method in brief: as §1
# [28] = biological target: Gal(a1-3)Gal(b1-3)GlcNAc(b1-6)GalNAc
# Method in brief: as §1
# [29] = biological target: Gal(a1-3)Gal(b1-3)[Fuc(a1-4)]GlcNAc(b1-2)Man(a1-3)[Gal(a1-3)Gal(b1-3)[Fuc(a1-4)]GlcNAc(b1-2)Man(a1-6)]Man(b1-4)GlcNAc(b1-4)GlcNAc
# Method in brief: as §1
# [30] = biological target: Gal(a1-3)Gal(b1-4)Glc
# Method in brief: as §1
# [31] = biological target: Gal(a1-3)Gal(b1-4)GlcNAc
# Method in brief: as §1
# [32] = biological target: Gal(a1-3)Gal(b1-4)GlcNAc(b1-2)Man
# Method in brief: as §1
# [33] = biological target: Gal(a1-3)Gal(b1-4)GlcNAc(b1-2)Man(a1-3)[Gal(a1-3)Gal(b1-4)GlcNAc(b1-2)Man(a1-6)]Man(b1-4)GlcNAc(b1-4)GlcNAc
# Method in brief: as §1
# [34] = biological target: Gal(a1-3)Gal(b1-4)GlcNAc(b1-3)GalNAc
# Method in brief: as §1
# [35] = biological target: Gal(a1-3)Gal(b1-4)GlcNAc(b1-6)GalNAc
# Method in brief: as §1
# [36] = biological target: Gal(a1-3)Gal(b1-4)[Fuc(a1-3)]GlcNAc
# Method in brief: as §1
# [37] = biological target: Gal(a1-3)Gal(b1-4)[Fuc(a1-3)]GlcNAc(b1-2)Man(a1-3)[Gal(a1-3)Gal(b1-4)[Fuc(a1-3)]GlcNAc(b1-2)Man(a1-6)]Man(b1-4)GlcNAc(b1-4)GlcNAc
# Method in brief: as §1
# [38] = biological target: Gal(a1-3)GalNAc
# Method in brief: as §1
binder,measurement,setting,value
B1,glycan array binding signal (z-score),[1],-0.29
same,glycan array binding signal (z-score),[2],-0.014
same,glycan array binding signal (z-score),[3],-0.175
same,glycan array binding signal (z-score),[4],-0.278
same,glycan array binding signal (z-score),[5],-0.401
same,glycan array binding signal (z-score),[6],0.05
same,glycan array binding signal (z-score),[7],-0.445
same,glycan array binding signal (z-score),[8],-0.253
same,glycan array binding signal (z-score),[9],-0.252
same,glycan array binding signal (z-score),[10],-0.189
same,glycan array binding signal (z-score),[11],-0.314
same,glycan array binding signal (z-score),[12],-0.23
same,glycan array binding signal (z-score),[13],-0.201
same,glycan array binding signal (z-score),[14],-0.216
same,glycan array binding signal (z-score),[15],-0.332
same,glycan array binding signal (z-score),[16],-0.157
same,glycan array binding signal (z-score),[17],-0.253
same,glycan array binding signal (z-score),[18],-0.174
same,glycan array binding signal (z-score),[19],-0.304
same,glycan array binding signal (z-score),[20],-0.247
same,glycan array binding signal (z-score),[21],-0.077
same,glycan array binding signal (z-score),[22],-0.106
same,glycan array binding signal (z-score),[23],-0.279
same,glycan array binding signal (z-score),[24],-0.218
same,glycan array binding signal (z-score),[25],-0.036
same,glycan array binding signal (z-score),[26],-0.124
same,glycan array binding signal (z-score),[27],-0.274
same,glycan array binding signal (z-score),[28],0.188
same,glycan array binding signal (z-score),[29],-0.163
same,glycan array binding signal (z-score),[30],-0.146
same,glycan array binding signal (z-score),[31],-0.304
same,glycan array binding signal (z-score),[32],-0.49
same,glycan array binding signal (z-score),[33],-0.322
same,glycan array binding signal (z-score),[34],-0.36
same,glycan array binding signal (z-score),[35],-0.276
same,glycan array binding signal (z-score),[36],-0.221
same,glycan array binding signal (z-score),[37],0.007
same,glycan array binding signal (z-score),[38],-0.284
